Assay results from the RNAGym collection of RNA variant scans (doi:10.7554/elife.90254).
The source gives no read counts; variants with many changes may rest on few reads.

B1: LINE1-mini (parent)
chain: GGCAGAGCUCAACACAGCGUGGCAAAGUGGCUGUGGCUAGACUGCC

Variants of: B1
Assay: self-cleavage, relative activity (ratio to wild type); higher = more cleavage; in vitro, sequencing; the parent is a self-cleaving ribozyme

| Variant | self-cleavage |
| --- | --- |
| G2C A6C C8A A26U C31A | 0.14 |
| G2A U9A C31U U32C | 0.25 |
| G2A G7A C18U | 1.93 |
| G2A A24U A25C G29A | 0.43 |
| G2A C37G U43A | 0.18 |
| G2A G21A A25C A26C | 1.55 |
| G2A G30C C31A C46A | 0.14 |
| G2A C10A G19U A24G C46A | 0.06 |
| G2A A12C C31G G40A | 0.02 |
| G2A G7C A39C G40A | 0.04 |
| G2A A4C G5A C23U U32A C37U | 0.04 |
| G2A A16U C37U | 0.23 |
| G2A G7A C8G G40A | 0.2 |
| G2A G17A A41C | 0.26 |
| G2A C10A G21U U28C | 0.03 |
| G2A C10G G27U G35C C45G | 0.01 |
| G2A A11U U34A G40A G44A | 0.03 |
| G2A C3A G33C C37U | 0.29 |
| G2A C13U U20G | 0.3 |
| G2A C8A G27C G30C U34A G35U | 0.05 |
| G2A G7U U28G | 0.06 |

| Variant | self-cleavage |
| --- | --- |
| G2A C8G C42G U43A | 0.13 |
| G2A C15U G22C A39C | 0.3 |
| G2A A11C U20G G27C G29A | 0.01 |
| G2A G7U C18U A26C G40A C45A | 0.28 |
| G2A U9G C18U U20A G22C C31U U38G | 0.04 |
| G2A C37A G44U | 0.3 |
| G2A C15G G17A G22A G33C | 0.03 |
| G2A C10A G40U | 0.02 |
| G2A A4C G29U | 0.17 |
| G2A G7A G35U G40U | 0.48 |
| G2A A14C U34A C37U | 0.02 |
| G2A U9G C23U A24C C45G | 0.02 |
| G2A G21A A39U | 0.78 |
| G2A C10A C15G C31A G44A | 0.03 |
| G2A A4U C8A C23G A24C C37U | 0.28 |
| G2A C23U A26C G40A C46G | 0.21 |
| G2A C13G C23G C46A | 0.15 |
| G2A G17U C18A C23A | 0.09 |
| G2A A4G C10U U28C | 0.08 |
| G2A G5U G22C | 0.08 |
| G2A A4U G19U | 0.29 |

| Variant | self-cleavage |
| --- | --- |
| G2A G7U C10A A12G A26C | 0.06 |
| G2A C15A A16U A25C C45G | 0.2 |
| G2A U9A G40U | 0.14 |
| G2A U38C A41C | 0.03 |
| G2A G7A C15G G21U | 0.36 |
| G2A A14G U28G G30A C42A | 0.01 |
| G2A C13U U34A | 0.38 |
| G2A G30U U32A G35U C37U G40U C45G | 0.11 |
| G2C A4G G22C G30A G40U | 0.04 |
| G2A G22A A26G G36C G40U | 0.05 |
| G2A G5C C13G C15A | 0.07 |
| G2A C8G A11U G27U | 0.02 |
| G2C A4U C10G G22A A25G U34A G36A | 0.02 |
| G2A C8A C10U | 0.19 |
| G2A A6C G7U C10A C18A | 0.04 |
| G2A A6C C10U A12G C15U A16U | 0.03 |
| G2A G19U A24C U32G G35A | 0.17 |
| G2A C15A C23A A24C C31G U38C | 0.15 |
| G2A A26G G30U U38A C46U | 0.13 |
| G2A G17U U20C U38A | 0.15 |
| G2C A4C A11U U20C G29C | 0.02 |

| Variant | self-cleavage |
| --- | --- |
| G2A C18G G21A C31A | 0.1 |
| G2A G17U G27C | 0.06 |
| G2A G36C A39G C45G | 0.11 |
| G2C A4C C10G C45G | 0.03 |
| G2A A12G C46G | 0.05 |
| G2A A16C G22C U28A A41U | 0.11 |
| G2A A11C G27U G35U | 0.01 |
| G2A U28A G33U C37A G40C G44U | 0.05 |
| G2A A6G A26C | 0.21 |
| G2A U9A C37A | 0.3 |
| G2A U20A G33C U43A | 0.03 |
| G2A A11C G22A G29U U32A G44U | 0.01 |
| G2A C3G G7U A14C C18U A24U C45U | 0.1 |
| G2A A16C C23G U34A | 0.02 |
| G2A C8A G29C C31A | 0.4 |
| G2A G5C A11C | 0.02 |
| G2A G21A U28G | 2.71 |
| G2A G7A A14C G30C | 0.13 |
| G2A C3A G44C | 3 |
| G2A G29A A39U | 2.06 |
| G2A A26U C37U | 0.68 |
